The supplement of paper PMC5499739
Whole data set: some 16,000 sequences, median “Z-score” near -0.37, cut for the highest 2% near 3.1. The list shows a part of the results.

System: RBM10 RRM1-ZnF-RRM2 (GST-tagged construct)
Assay: RNAcompete 7-mer binding Z-score; higher = stronger binding preference
How it was run: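 Bound RNA was identified by microarray hybridisation after GST-tagged RBM10 constructs (20 pmol) had been mixed with 1.5 nmol of a designed pool of 241 399 RNAs up to 41 nt, transcribed from microarray-derived DNA templates. Binding ran for 30 min at 4°C in 1 ml Hepes pH 7.8 buffer with KCl, NaCl, glycerol, DTT, BSA and glutathione Sepharose beads, with four 2-min washes at 4°C afterwards. For every heptamer motif, a one-sided Z-score for enrichment was computed across the probes that contained it.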

Sequence | RNAcompete 7-mer binding Z-score
GCCAUGU | -0.632
CCGAUAA | -0.5
CGAGCGU | 0.166
UUAUAUC | -0.712
CCAGCGG | 0.465
AACGAGC | 0.283
GAGCGUU | 0.0786
CGUCGUC | -0.468
GAGACCG | -0.0452
UCUUCCU | -0.701
CAAAUGG | 1.24
GUUUACC | -0.326
GCGUUCU | -0.624
CCUACUC | -0.846
GUCUCAC | -0.486
GUCAAUA | -0.147
CAGAAAG | 0.723
CGACUCU | -0.908
AUAAGAU | -0.195
GACACGC | -0.49
AAAAGAC | -0.00512
AGUACUA | -0.296
AGCUCGA | -0.406
AUCAGGA | 1.28
ACGAGAG | 0.709

Sequence | RNAcompete 7-mer binding Z-score
CCGUAGC | -0.679
CUAGGGC | 0.709
GGUUCUU | -0.457
GACAGUU | -0.129
CAAGGUC | 0.0714
CGGACCG | -0.267
GAUACGA | 0.323
GUAUACA | 0.29
CGAAACG | 0.0459
AAGCCAU | -0.694
CCGCGCC | -0.748
GGGGAUC | 2.27
UUUCCGG | -0.464
UUGGUUG | 0.392
GGCGGUA | 1.72
UCGGGCG | 1.34
ACUUGUA | -0.646
UAGUACC | -0.621
GAUAGAG | 1.52
AGUCCGG | 0.104
GCCCGAG | -0.453
CAGUAAU | -0.275
UUUGGUU | 0.0313
GCUCCGC | -0.759
GCAUGGA | 1.99

Sequence | RNAcompete 7-mer binding Z-score
GCCUACA | -0.916
UCUGAAU | -0.759
CCUGCGU | -0.748
CUACUGG | -0.406
UCCCUCC | -0.683
CGCUGAU | -0.694
ACAUUUA | -0.785
UACAGCG | 0.148
AAAAGAG | 0.694
GACUGAG | 0.414
AUUAAUC | -0.49
UUAUGCG | -0.326
GCGCGCG | 0.563
UGGCUAG | 0.519
CCCAUUG | -0.712
UAAUGUA | -0.158
AGGGAAC | 3.06
AUAUAUC | -0.533
UUACCCC | -0.719
UCAGCGG | 0.246
UGGCAAA | 1.16
GCAAUCA | -0.114
UAACGGC | -0.0707
GCUUCGA | -0.5
UAUUGUC | -0.675

Sequence | RNAcompete 7-mer binding Z-score
GUUCAUC | -0.526
CGGUAGU | 0.37
UACAGUU | -0.384
UUUGUCC | -0.85
GAGCGCU | -0.471
UCUUGGA | -0.362
UGGAAUU | 0.527
AAGACGC | -0.253
CAUUUUU | -0.872
GUGCCAU | -0.395
AUCAACU | -0.592
UGUAUAU | -0.369
UCGCAGG | 0.29
CACUGCU | -0.843
CUGUUUC | -0.846
CAUGCCC | -0.854
ACCCUAC | -0.832
UGCUUUC | -0.781
GGGAUUG | 2.81
GCUGCAC | -0.475
AGUGUAA | 0.578
UUCGCGU | -0.504
CUUCACC | -0.919
ACGGUGU | 0.825
GUGAGCG | 1.86

Sequence | RNAcompete 7-mer binding Z-score
GUUGUAA | 0.155
GUGGACG | 2.32
CGUCCAA | -0.686
UGCAAUA | -0.0962
AUCAGUG | 0.665
UGUCUUC | -0.734
CUACUCA | -0.879
AUCAGCG | -0.125
CUGUUUU | -0.89
GGACGCA | 0.683
AGCAGGG | 3.39
GUGCAUG | 0.785
UCAGAUG | 0.115
CGGUCGC | -0.304
UGAGUGG | 2.63
CAGUAGC | -0.344
UCUUCUC | -0.821
AGAUAGA | 0.439
AAGCCUU | -1.05
UCAUUAG | -0.409
GUCGCAU | -0.202
AUAGUCC | -0.624
GGAUCUU | -0.289
CAAAGGC | 0.345
ACGAGUG | 0.956

Sequence | RNAcompete 7-mer binding Z-score
ACAGAUC | -0.508
CUGAGCG | 0.268
UCUGUUC | -0.795
UAGACCU | -0.741
CGAUACC | -0.457
GACCGCU | -0.919
UCAAUUC | -0.752
CUGGUAG | 0.232
UAACGAC | -0.602
AGAUCGC | -0.719
UUUACAG | -0.482
CUUAACC | -0.865
AUCGAGC | -0.449
AAUUUUG | -0.766
UGGGAGC | 2.67
CCAGGCG | 0.195
GCGGCUU | -0.511
CGCAAUC | -0.628
AUGUUUG | -0.0634
UUGACAA | -0.486
GAAAGAC | 0.137
ACGUAAU | -0.417
UUAUAAU | -0.471
CAACCAC | -0.577
CAAGGCC | -0.235

Sequence | RNAcompete 7-mer binding Z-score
UGACCUG | -0.694
ACUUCGA | -0.719
CUUUCCG | -0.777
AGUAUAG | 0.807
UAAUUUA | -0.723
GCUUAAG | -0.439
CAUCUUG | -0.872
AUCCGAU | -0.53
CUUGAGC | -0.978
AGCAUAC | -0.34
ACAGUUG | 0.075
UUCGGGU | 0.964
UCGAUCU | -0.653
CCUUUCU | -0.872
GGUCCAU | -0.315
AUUGAAU | 0.0604
CGGAGGA | 1.75
AACCGGC | -0.428
UCGCGCA | -0.595
GGUGCCA | 0.785
GCAGUUA | -0.0853
CGGGUUC | 0.778
AAGAGGG | 3.05
CGGCGAA | 0.676
UGGGGAC | 2.28

Sequence | RNAcompete 7-mer binding Z-score
UAAUUCG | -0.431
CGUCGCA | -0.541
GAUUCUC | -0.628
GUUAACU | -0.398
AUGGACG | 2.6
GAUGGCC | 0.0604
AGAAAUG | 1.32
AGAGAUC | -0.413
GUCAACC | -0.544
GUCAUCU | -0.719
UAGACUC | -0.726
CUUACCG | -0.726
UGCGCGU | -0.227
GAAAUAA | -0.231
UCCUAUC | -0.85
UCAGCCA | -0.613
UAAGGUU | 1.74
UAGUAAA | -0.067
UUGGUUU | 0.337
CAGGCGC | -0.111
CGUAGCC | -0.508
UUUUGAA | -0.537
UAAUUUG | -0.417
CGGAGUC | 0.101
CACGUAA | -0.318

Sequence | RNAcompete 7-mer binding Z-score
UUCCAUA | -0.624
CCAGGGU | 1.18
UGAUAAG | 0.101
UUUUAAG | -0.566
CUUAUGG | -0.282
GACACGU | -0.435
AGGUCUA | -0.195
GUGGAAC | 1.73
AAUAUCG | -0.355
GUCGGGG | 2.62
UUCCUGA | -0.763
ACAUUGG | 0.873
CAGCGAU | -0.173
AUUCUUA | -0.734
UCCAGCU | -0.908
ACGAGCU | -0.417
GGACAUA | 0.745
UGGGGGC | 3.18
UUAGAAC | -0.417
UCACUGA | -0.504
AUUCCCA | -0.73
GCAUAAC | -0.107
AUUCAUC | -0.664
GGGUGCG | 2.85
AAAACGU | -0.0197

Sequence | RNAcompete 7-mer binding Z-score
GUCAGAG | 0.406
AGUGGGG | 4.66
UGGCCUC | -0.748
AUCCACA | -0.675
UUCACGC | -0.868
CAACCUG | -0.785
GUAUAUA | -0.0379
AGUAAUU | -0.402
UCGUAGC | -0.519
CAGUACC | -0.329
GAUGCCC | -0.592
GCUUAGC | -0.566
GAUUCUU | -0.661
GCGGGGG | 3.51
CCGAACC | -0.861
CGCUAAA | -0.694
CAUAAUU | -0.872
UGAGAUU | -0.0853
CACGGGA | 1.66
AACUGAC | -0.61
AAACAAU | -0.0598
CGUUACC | -0.617
UUCUGAG | -0.588
UAACUUU | -0.774
CAAACCA | -0.599

Sequence | RNAcompete 7-mer binding Z-score
UUACGAC | -0.533
AAACCAG | 0.188
GUUUAGG | 1.16
UGACCAU | -0.515
UAUGUUA | -0.435
GGCUGAC | -0.0343
UCACACA | -0.548
CACCGUG | -0.318
UCAAUUG | -0.384
CGUACAU | -0.373
CCGUUGG | 0.228
UCCACUG | -0.606
GUCAAGU | -0.0925
GUGGUUG | 2.15
GGAUUUU | -0.165
AACGCUG | -0.442
UAUUUGU | -0.657
GCGAACC | -0.289
GGCGCAA | 0.497
AUUUGCG | -0.653
CUGAUCC | -0.836
UGCAUCG | -0.42
CGUUGCC | -0.653
GGCAACA | 0.698
CAACUUA | -0.708

Sequence | RNAcompete 7-mer binding Z-score
CAUGGCA | 0.286
CAAUAGG | 1.3
ACCCGAC | -0.759
GCCUUAC | -0.81
CAUGGUG | 1.13
CUGAUAU | -0.741
UGAGUCU | -0.144
GCUCGCA | -0.373
CUUCGCG | -0.777
GGGUAGU | 3.17
ACGUCCG | -0.777
GGGUUCA | 1.32
AAACUCG | -0.825
UUCGCGG | -0.111
AUCGGCU | -0.683
GAACGUA | 0.374
GGCGGAG | 2.84
AGAAAAC | -0.114
UCUUAAA | -0.763
UCUUUGG | -0.464
CUUGUUC | -1.01
AGACCUA | -1.07
UUUUUAU | -0.624
GCCGGAC | -0.282
UUCGUGU | -0.544

Sequence | RNAcompete 7-mer binding Z-score
AUUCCUC | -0.832
AGAUUUA | -0.253
GGCCUAU | -0.588
AGCCGAA | -0.795
UAAGAUA | -0.027
ACCGCAU | -0.934
CUGUGUA | -0.417
GAGACAU | 0.301
CCGUCUU | -0.934
UAGAUUU | -0.57
UUGGCGC | -0.103
AGCCUUC | -0.719
UACGUGC | -0.369
GCCUCAU | -0.938
UCACUAA | -0.723
CUGAGCU | -0.632
UGGCAAC | 0.541
ACUGGUA | 0.0641
AGUUAAA | -0.0415
GCGGACA | 0.807
CUAGUGA | -0.202
GGCCCUA | -0.439
GGUGCUG | 1.72
GCCGUAC | -0.635
CGUCUUG | -0.77

Sequence | RNAcompete 7-mer binding Z-score
GUAUCCG | -0.311
CUCUAUG | -0.763
ACUCCAA | -0.533
CCAUAGA | -0.464
AGUGCCU | -0.577
UAAGUCU | -0.635
CAAAUUC | -0.752
UUAUGGA | 0.683
UAGGCAA | 1.53
CGGGGGG | 3.04
GGCCUCG | -0.26
AACGCAC | -0.701
UGGACAU | 0.559
UCGUCUU | -0.519
CGUCGUA | 0.0532
UAGCCUA | -0.865
AUGCGCA | -0.246
AAUACCU | -0.774
UAUAGGU | 0.92
CGGCAUA | -0.224
AGUCGCA | -0.122
AGCAUCA | -0.271
CAAACGG | 0.829
GUAAUCA | 0.213
UGAGGCU | 0.315

Sequence | RNAcompete 7-mer binding Z-score
AUAAGAG | 0.406
UACCUCC | -0.755
GAUGUAG | 1.5
CCAAUUG | -0.453
CAUUGGG | 1.37
UAUAGUC | -0.621
ACCAUGA | -0.602
CUGCGCG | -0.398
AACCCUA | -0.883
GAACCCG | -0.744
CAGGCCU | -0.624
AUUGGGC | 1.78
GUCGGGU | 1.85
ACGCUAA | -0.646
GUGCCGG | 0.556
ACCCAAG | -0.639
CAUGUUG | -0.326
